Measured values from patent US20230235080A1, “TROPHOBLAST CELL-SURFACE ANTIGEN-2 (TROP-2) ANTIBODIES” (Bionecure Therapeutics, Inc., priority 2020, published 2023).
Residue numbers refer to the chain shown, from its start.

B1: A1X4-MMAE: A1X4 antibody conjugated to MMAE via mc-vc-PABA (valine-citrulline) linker (conjugate)
heavy: QVQLQESGPGLVKPSETLSLTCTVSGFSLTSYGVNWIRQPPGKGLEWIGVMWAGGSTNYNSALMSRVTISVDTSKNQFSLKLSSVTAADTAVYYCARDENWDGAWFAYWGQGTLVTVSSASTKGPSVFPLAPSSKSTSGGTAALGCLVKDYFPEPVTVSWNSGALTSGVHTFPAVLQSSGLYSLSSVVTVPSSSLGTQAYICNVNHKPSNTKVDKKVG[left out - human IgG1 Fc with K334R T359A (EU numbers)]
light: DIVMTQSPDSLAVSLGERATINCKSSQSLLNSGTRKNYLAWYQQKPGQPPKLLISWASSRESGVPDRFSGSGSGTDFTLTISSLQAEDVAVYYCKQSYNLFTFGGGTKVEIKRTVAAPSVFIFPPSDEQLKSGTASVVCLLNNFYPREAKVQWKVDNALQSGNSQESVTEQDSKDSTYSLSSTLTLSKADYEKHKVYACEVTHQGLSSPVTKSFNRGEC
B2: A1,2X4-MMAE: A1,2X4 antibody conjugated to MMAE via mc-vc-PABA (valine-citrulline) linker (conjugate)
heavy: B1 heavy with V67L, V71K
light: B1 light

Tests used:
NCI-N87 xenograft = NCI-N87 xenograft model in BALB/c nude mice; format: in vivo, mouse; conditions: single administration at 5.0 mg/kg, intravenously
Method: (§1) The anti-tumor activities of anti-Trop-2-vc-MMAE ADCs were assessed using Trop-2-positive MDA-MB-468 and NCI-N87 xenograft models in mouse subjects. Five millions NCI-N87 cells were harvested from culture flasks, and implanted subcutaneously into the right flank of 6- to 7-week-old BALB/c nude mice. Tumors were measured twice a week throughout the course of the experiments, with tumor volume calculated using the following formula: tumor volume (mm^3) = (length x width^2)/2.
The ADCs tested in NCI-N87 model were conjugated with different DARs: Benchmark hRS7-MMAE had DAR of 4.33, A1X4-MMAE had DAR of 6.1, and A1,2X4-MMAE had DAR of 5.8. Therefore, the dose administered for each ADC was adjusted to ensure the same amount of payload. As such, Benchmark hRS7-MMAE, A1X4-MMAE or A1,2X4-MMAE was administered at 0.5 mg/kg, 1.0 mg/kg and 1.5 mg/kg. ADCs were administered intravenously as a single bolus dose.

N87 gastric cancer cells = experiment: In vitro cytotoxicity of ADC, NCI-N87; format: cell-based; conditions: NCI-N87, moderate Trop-2 expression; FIG. 8A
Method: (§2) ADCs of the invention containing cytotoxic payloads may be used to kill target cells, such as killing cancer cells. For in vitro assay, MDA-MB-468, SK-BR-3, NCI-N87, Colo205, A549 were tested. All cell lines were cultured in a suitable culture medium at 37° C. in a humidified incubator atmosphere of 5% CO2. Cells were plated in 96-well flat bottom plates. Cell seeding number ranged from 500 cells/100 µl/ well to 6,000 cells/100 µl/well. Cells were allowed to adhere overnight at 37° C. in a humidified atmosphere of 5% CO2. A1X4-MMAE with DAR2, or DAR4, or DAR6 were prepared from stock solution and diluted into appropriated working concentration 24 hr after cell seeding. A serial ten-fold dilution for seven points was performed with culture medium. The final concentrations were ranging from 1000 nM to 0.001 nM. The cells were incubated with ADCs for 72 hours. Cell Counting Kit-8 solution (Dojindo China Co., Ltd, lot#PL701) was added to the wells for 1-4 hr at 37° C. and the absorbance at 450 nm was measured using a Microplate Reader (SpectraMax M5, Molecular Devices) and SoftMax Pro5.4.1 software. The percent of inhibition was calculated by the following formula: (average absorbance of treated samples/average absorbance of control samples) × 100. For all cellular assays, dose-response curves were generated using GraphPad Prism 7 three-parameter curve fitting. […]

[1] = test system: MDA-MB-468 breast cancer cells; experiment: In vitro cytotoxicity of ADC, MDA-MB-468; format: cell-based; conditions: FIG. 8A
Method: as §2

[2] = test system: SK-BR-3 ovarian cancer cells; experiment: In vitro cytotoxicity of ADC, SK-BR-3; format: cell-based; conditions: SK-BR-3, moderate Trop-2 expression; FIG. 8A
Method: as §2

[3] = test system: Colo205 colon cancer cells; experiment: In vitro cytotoxicity of ADC, Colo205; format: cell-based; conditions: Colo205, low Trop-2 expression; FIG. 8A
Method: as §2

[4] = test system: Trop-2-positive MDA-MB-468 cells; experiment: Transwell coculture cell killing assay, Trop-2-positive cells; format: cell-based; conditions: 1, 10, and 100 nM; 72 hours
Method: (§3) Bystander killing effect has been observed for some ADCs in the preclinical studies. It could not only affect antigen-expressing tumor cells but also adjacent antigen-negative cells through the transfer of released payload from the antigen-expressing cells to the neighboring antigen-negative cells. In order to confirm whether A1,2X4-MMAE induce bystander killing, a transwell coculture cell killing assay was carried out. The Trop-2-positive MDA-MB-468 cells were plated at the bottom of the plate at the density of 3,000 cells/500 µl/ well. Cell culture inserts (Thermo, cat#140627) were inserted and the Trop-2-negative MDA-MB-231 cells were seeded in the inserts at the same density as MDA-MB-468. After 24 hr incubation, A1,2X4-MMAE was added to MDA-MB-468 cells in the bottom well at concentrations of 1, 10, and 100 nM, and incubated for 72 hours. MDA-MB-468 and MDA-MB-231 cell cytotoxicity was measured by Cell Counting Kit-8 as described in Example 7. The percent of inhibition was calculated by the following formula: (average absorbance of treated samples/average absorbance of control samples) × 100.

MDA-MB-468 xenograft = MDA-MB-468 xenograft model in BALB/c nude mice; format: in vivo, mouse
Method: To compare the in vivo anti-tumor activities of ADCs with different DARs, A1X4-MMAE DAR2, A1X4-MMAE DAR4, A1X4-MMAE DAR6 were tested in MDA-MB-468 xenograft model. MDA-MB-468 cells were harvested from culture flasks and mixed with Matrigel (1:1). Five millions cells were implanted subcutaneously into the right flank of 6- to 7-week-old BALB/c nude mice. After tumors were established, mice were divided into groups randomly based on the tumor volume. ADCs were administered intravenously at 1.5 mg/kg as a single bolus dose. Tumors were measured twice a week throughout the course of the study, with tumor volume calculated using the following formula: tumor volume (mm^3) = (length x width^2)/2. Data were analyzed by GraphPad Prism 7 and presented as mean + standard deviation. Statistical analysis was performed with one-way ANOVA.
as §1
To further compare the antitumor activities of different ADCs, A1X4-MMAE and A1,2X4-MMAE were tested head to head in the MDA-MB-468 xenograft model. All ADCs were administered at 1.5 mg/kg single dose.
The impact of dosing regimen on antitumor activity of anti-Trop-2 ADC was evaluated by comparing single and fractionated dosing schedules of A1,2X4-MMAE in Trop-2-positive MDA-MB-468 xenograft model. Three dosing regimens were tested which included 1) one single dose at 1.5 mg/kg; 2) two doses at 0.75 mg/kg given every 7 days; 3) four doses at 0.375 mg/kg given twice weekly.

[5] = test system: Trop-2-negative MDA-MB-231 cells; experiment: Transwell coculture cell killing assay, Trop-2-negative cells (bystander killing); format: cell-based; conditions: 1, 10, and 100 nM, 72 hours
Method: as §3

Molecule | anti-tumor activity, N87 xenograft (FIG. 10A) (NCI-N87 xenograft) | IC50 (N87 gastric cancer cells) | IC50 [1] | IC50 [2] | IC50 [3] | inhibition of MDA-MB-468 cell proliferation (FIG. 9) [4] | anti-tumor activity, MDA-MB-468 xenograft head to head (FIG. 10B) (MDA-MB-468 xenograft; 1.5 mg/kg single dose) | anti-tumor activity by dosing regimen (FIG. 11) (MDA-MB-468 xenograft; four doses at 0.375 mg/kg given twice weekly) | anti-tumor activity by dosing regimen (FIG. 11) (MDA-MB-468 xenograft; one single dose at 1.5 mg/kg) | effect on MDA-MB-231 cells alone (FIG. 9) ([5]; MDA-MB-231 alone) | cell killing under coculture of MDA-MB-468 and MDA-MB-231 (bystander killing, FIG. 9) ([5]; coculture condition)
B1 | durable tumor regression | single-digit | single-digit | single-digit | weakest activity | – | – | – | – | – | –
B2 | durable tumor regression | – | – | – | – | effectively inhibited | more effective than A1X4-MMAE | better tumor growth inhibition than weekly fractionated doses of 0.75 mg/kg | most effective | had no effect | killed both cells
